Structures are written as SMILES. The list shows a part of the results. Shown are side measurements of this screen, not its main read-out; they come without a call. The list favours compounds with an active or inconclusive main result.

The assay is described as follows: inhibitors of hepatocyte lipid droplet formation, primary screen, imaging, high-throughput imaging, BODIPY stain (AID 1656).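 Also: cells counted across two imaged fields per well.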 The settings on record: AML12 mouse hepatocytes, oleate lipid droplets, measured here: cell count, cytotoxicity flag, at 6.5 µM. The essentials: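 Assay system: AML12 mouse liver cells | Compound: 6.5 µM single-point dosing | Schedule: Overnight exposure | Technique: Fluorescence imaging, 20x objective, two fields per well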
The compound `Cc1cc(NC(=O)CSc2nc(-c3ccco3)cc(C(F)(F)F)n2)no1` came in with a cell count of 221 cells.

In turn, `COc1ccc(S(=O)(=O)N(c2onc(C)c2Cl)S(=O)(=O)c2ccc(OC)cc2)cc1` displayed a cell count of 574 cells.

`COc1ccc(-n2c(=O)c3c4c(sc3n(CC(=O)Nc3cc(C)[nH]n3)c2=O)CCC4)c(OC)c1` returned a cell count of 736 cells.

As to `CCOc1cc2[nH]c(=O)n(CCCC(=O)N(C)Cc3ccccc3)c(=O)c2cc1OCC`, the cell count was 697 cells.

Regarding `CCOc1ccc(CCNC(=O)COC(=O)c2cc([N+](=O)[O-])ccc2N2CCOCC2)cc1OCC`, the cell count is 827 cells.

Compound `CC1(C)OC(c2ccccc2)=C/C(=C/C=C2C(=O)c3ccccc3C2=O)O1` gave a cell count of 757 cells.

In the case of `CCOC(=O)Nc1sc(=S)n(C)c1C`, the cell count is 82 cells.

The compound `COc1cc(NC(=O)c2ccco2)c(OC)cc1NC(=O)CCC(=O)Nc1cc(C)cc(C)c1` returned a cell count of 701 cells.

Compound `Cn1ccsc1=NC(=O)c1ccc(CS(C)(=O)=O)cc1` yielded a cell count of 172 cells.

Regarding `Oc1ccc(C2=NNC(=NCc3ccc4c(c3)OCO4)SC2)c(O)c1`, the cell count was determined as 195 cells.

The compound `O=C(Nc1ccc(-c2nc3ncccc3o2)cc1)c1ccc(Br)o1` registered a cell count of 701 cells.

Compound `COc1ccc(C)cc1NC(=O)Nc1ccc(C(=O)N2CCCC2)cc1` returned a cell count of 848 cells.

For the compound `Cc1nn(Cc2ccc(F)cc2)c(C)c1NC(=O)C1c2ccccc2Oc2ccccc21`, the cell count worked out at 622 cells.

In turn, `COc1ccc(NC(=O)Nc2cccc3ccccc23)c(OC)c1` registered a cell count of 863 cells.

In turn, `CCC(C)(C)NC(=O)C(c1ccc(C)cc1)N(CC1CCCO1)C(=O)CCC(=O)Nc1ccccn1` (configuration not stated) had a cell count of 773 cells.

Turning to `COc1ccc(-c2csc(NC(=O)c3ccc(OCC(=O)N4CCOCC4)c(OC)c3)n2)cc1`, the cell count is 575 cells.

As to `CCC(C(=O)NCc1cccc(C)c1)n1nc(C)c2c(C)n(-c3ccccc3)nc2c1=O` (configuration not stated), the cell count stood at 687 cells.

`Cc1cccc(NC(=O)CSc2nc3ccccc3nc2N2CCCC2)c1C` returned a cell count of 774 cells.

Take `COC(=O)c1ccc(COc2ccc(F)cc2)o1`: the cell count came to 813 cells.

Consider `CCOc1ccc2ccccc2c1/C=N/NC(=O)CNC(=O)C(c1ccccc1)c1ccccc1`, for which the cell count is 690 cells.

As to `COc1cc(/C=C\C(=O)OCn2nnc3ccccc3c2=O)cc(OC)c1OC`, the cell count was found to be 705 cells.

As to `Cn1nc([N+](=O)[O-])nc1Sc1nnc(-c2ccccc2)o1`, the cell count is 111 cells.

As for `CCOC(=O)c1cc(NC(=O)N(C)C2CCCCC2)c(C)nc1C`, the cell count was determined as 766 cells.

`COc1ccc(NC(=O)Cc2c(C)n(C(=O)c3ccc(Cl)cc3)c3ccc(OC)cc23)cc1` registered a cell count of 581 cells.

The compound `CCCC(=O)Nc1c2c(nc3ccccc13)N(c1ccccc1)CC2` displayed a cell count of 699 cells.

In turn, `COc1ccc(CCNC(=O)CN2C(=O)c3cccc4cccc(c34)C2=O)cc1OC` returned a cell count of 649 cells.

`O=C1Nc2ccc(Cl)cc2C12Nc1ccccc1-c1nnc(SCc3ccccc3F)nc1O2` (configuration not stated) had a cell count of 276 cells.

`CCCCCC(=O)N=Nc1c(O)[nH]c2ccc([N+](=O)[O-])cc12` returned a cell count of 233 cells.

Consider `CCCC(=NCCc1c(C)[nH]c2ccccc12)C1=C(O)CC(c2ccccc2)CC1=O` (configuration not stated), for which the cell count stood at 237 cells.

Take `COc1ccc(OC)c(/C=C/C(=O)N(C)CC(=O)Nc2cc(C)ccc2C)c1`: the cell count amounted to 741 cells.

`O=C(Nc1ccc([N+](=O)[O-])cn1)c1cc(-c2cccc(Cl)c2)nc2ccccc12` registered a cell count of 623 cells.

Compound `Cc1cc(NC(=O)c2cccc3ccccc23)cc(C)c1OCC(=O)N1CCOCC1` showed a cell count of 817 cells.

For the compound `COc1cc(-c2noc(C)c2/C=C/c2cccc([N+](=O)[O-])c2)cc(OC)c1OC`, the cell count worked out at 289 cells.

`OCC[C@@H]1C[C@H](O)[C@@H](O)[C@]2(Cc3ccccc3O2)O1`: the cell count came out at 792 cells.

The compound `CNC(=O)c1[nH]cnc1C(=O)Nc1ccccc1C` had a cell count of 79 cells.

In the case of `O=C1CC(/C=C/c2ccccc2)(C(=O)NC2CCCC2)N1c1ccc(S(=O)(=O)N2CCCC2)cc1` (configuration not stated), the cell count came to 627 cells.

`CCS(=O)(=O)N1CCN(c2ccc([N+](=O)[O-])c(NCc3cccnc3)c2)CC1` gave a cell count of 762 cells.

In turn, `COc1ccc(-c2ccc(=O)n(Cc3cccc([N+](=O)[O-])c3)n2)cc1` showed a cell count of 790 cells.

Compound `CC(C)(C)C(=O)/C=c1\[nH]c(=O)/c(=C\c2ccc(F)cc2)s1` gave a cell count of 726 cells.

`Cc1cccc(NC(=O)c2cccc(OC(=S)N3CCOCC3)c2)c1` displayed a cell count of 756 cells.

Compound `Cc1ccc(CNC(=O)c2ccc(N3CCC4(CC3)CC(c3ccccc3)=NO4)c(NC(=O)c3ccc(Br)cc3)c2)cc1` registered a cell count of 785 cells.

`Cc1ccccc1Nc1nc(N)nc(CSc2nnnn2-c2ccccc2)n1` showed a cell count of 271 cells.

As for `CCOc1ccc(CCNC(=O)C(C)n2nc(C)n3c(cc4occc43)c2=O)cc1OCC` (configuration not stated), the cell count was 707 cells.

For `Cc1ccc(-c2[nH]c3ccccc3c2SCCNC(=O)c2ccc(S(=O)(=O)N3CCOCC3)cc2)cc1`, the cell count turned out to be 723 cells.

As for `Cc1ccc(-n2nc3c(=O)n(CC(=O)NCCCc4ccccc4)nc(C)c3c2C)cc1`, the cell count was 751 cells.

Regarding `COc1cc2c(cc1OC)CN(CC(=O)Nc1ccc(C)c(C)c1)CC2`, the cell count turned out to be 829 cells.

For `Cc1cc(C)c2nc(SCC(=O)N3CC(=O)Nc4ccccc43)c(C#N)cc2c1`, the cell count is 301 cells.

For the compound `Nc1cc(Nc2ccccc2)c2nonc2c1[N+](=O)[O-]`, the cell count turned out to be 826 cells.

In turn, `COc1cc(SC)ccc1C(=O)OC(C)C(=O)Nc1ccc(NC(C)=O)cc1` (configuration not stated) yielded a cell count of 835 cells.

`O=C(COc1ccccc1-c1ccccc1)N/N=C/c1ccc2ccccc2c1` came in with a cell count of 37 cells.

Regarding `CCOc1ccccc1NC(=O)N1CCC(C(=O)c2ccc(F)cc2)CC1`, the cell count worked out at 754 cells.

As for `CCOc1ccc(-n2c(SCC(=O)Nc3ccc(CC)cc3)nc3n[nH]c(C)c3c2=N)cc1`, the cell count was 751 cells.

The compound `C=C1C(=O)C=C2CN(C(=O)c3ccccc3)[C@@](Cc3ccc(F)cc3)(C(=O)OC)[C@@H]12` had a cell count of 247 cells.

`COc1ccc(NC(=O)CSc2nc3ccccc3nc2N2CCCC2)cc1Cl` had a cell count of 748 cells.

Turning to `CCC1(c2ccccc2)NC(=O)N(CC(=O)N(C)Cc2c(F)cccc2Cl)C1=O` (configuration not stated), the cell count was found to be 717 cells.

`COc1ccc(-c2nc3c(c4nnc(SC(C)C(=O)Nc5ccc(C)cc5)n24)COC(C)(C)C3)cc1` (configuration not stated) showed a cell count of 655 cells.

Consider `CN(C)/C=N/n1cnc2ccccc2c1=O`, for which the cell count stood at 509 cells.

The compound `COC(=O)c1cc(C)sc1NC(=O)C1CC(=O)NN1Cc1ccccc1` (configuration not stated) displayed a cell count of 651 cells.

Consider `CCN(CC)S(=O)(=O)c1ccc(S(=O)(=O)N(CC(=O)Nc2ccccc2)Cc2ccco2)cc1`, for which the cell count amounted to 738 cells.

On to `CCCOc1ccc(/C=N/Nc2ccccc2[N+](=O)[O-])c(O)c1`, for which the cell count amounted to 658 cells.

The compound `CN(c1ccccc1)S(=O)(=O)c1cccc(NC(=O)CSc2nnc(N)s2)c1` gave a cell count of 292 cells.

In turn, `CCCOC(=O)c1ccc(NC(=O)CCOc2ccccc2)cc1` had a cell count of 750 cells.

These data come from PubChem BioAssay AID1656 (Sanford-Burnham Center for Chemical Genomics, 2009).
